# Publication PMC6919601, “Identification of Plasmodium dipeptidyl aminopeptidase allosteric inhibitors by high throughput screening” (PLoS ONE, 2019)
# Hit rate of the full screen: of about 110,000 compounds, about 230 (0.21%) showed an effect of 50% or more. This is one part of the list.
# Biological target: DPAP1 (Plasmodium falciparum, UniProt Q8IIJ9)
# Assay: primary screen, percent inhibition; read by cleavage of a fluorogenic dipeptide substrate; higher = more effect of the substance
# Set-up: species or system P. falciparum D10 trophozoite lysates; single well
# 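Note: 30 min substrate incubation versus DMSO and 10 µM JCP410 controls.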
# DPAP1, sequence (Q8IIJ9 whole entry, looked up): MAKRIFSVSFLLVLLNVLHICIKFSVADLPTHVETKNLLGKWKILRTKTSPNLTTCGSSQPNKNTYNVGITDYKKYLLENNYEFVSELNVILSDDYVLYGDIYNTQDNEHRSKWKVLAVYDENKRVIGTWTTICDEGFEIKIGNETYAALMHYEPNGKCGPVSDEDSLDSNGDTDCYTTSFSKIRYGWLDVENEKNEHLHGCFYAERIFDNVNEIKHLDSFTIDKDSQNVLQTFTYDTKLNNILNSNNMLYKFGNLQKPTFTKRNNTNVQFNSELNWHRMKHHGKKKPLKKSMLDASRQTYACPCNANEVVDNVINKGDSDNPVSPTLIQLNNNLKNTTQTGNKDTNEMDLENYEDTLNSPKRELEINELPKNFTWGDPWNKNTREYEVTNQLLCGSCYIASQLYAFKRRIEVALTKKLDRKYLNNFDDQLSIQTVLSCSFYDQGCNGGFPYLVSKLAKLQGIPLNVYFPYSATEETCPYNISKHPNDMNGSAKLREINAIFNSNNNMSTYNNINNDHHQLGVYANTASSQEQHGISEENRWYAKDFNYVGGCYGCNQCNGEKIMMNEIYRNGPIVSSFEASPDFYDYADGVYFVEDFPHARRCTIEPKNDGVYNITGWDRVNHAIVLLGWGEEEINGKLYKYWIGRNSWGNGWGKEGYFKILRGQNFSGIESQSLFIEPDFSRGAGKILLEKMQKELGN
row,SMILES,% Inhibition @ 10 uM
1,CCNC(=O)CC1SC(Nc2ccc(C)cc2)=NC1=O (stereo not shown),-0.185%
2,Cc1ccccc1NC(=O)c1c(C(=O)O)cccc1[N+](=O)[O-],-6.83%
3,OCCN1CCN(CC2CCCCC2)CC1,-1.78%
4,Cc1ccc(NC(=O)c2ccc(S(=O)(=O)N3CCCCC3C)cc2)cc1Cl (stereo not shown),5.39%
5,COc1ccc(-c2nnc(SCC(=O)NC(C)(C)C)nc2-c2ccc(OC)cc2)cc1,-3.44%
6,COc1ccc(C(=O)Nc2ccc(S(=O)(=O)N3CCC(C)CC3)cc2)cc1,3.8%
7,Cc1ccc(-c2cn3c(n2)sc2cc(C(=O)N4CCC(C)CC4)ccc23)cc1,18.2%
8,O=C(O)CCCC(=O)N1CCN(c2ccccc2)CC1,-4.28%
9,CCCNC(=O)C1CCN(S(=O)(=O)c2ccccc2)CC1,0.992%
10,CCCCn1nc(-c2ccccc2)c(-c2ccccc2)c(C(=O)OC)c1=O,1.91%
11,COc1cccc(OC)c1C(=O)N1CCCCC1C (stereo not shown),-1.28%
12,CCc1nnc(SCC(=O)NCCc2ccccc2)c2cc3oc(C)cc3n12,-5.93%
13,CS(=O)(=O)N1CCC(C(=O)NCCC2=CCCCC2)CC1,-1.34%
14,CCCCOC(=O)c1ccc(NS(C)(=O)=O)cc1,3.01%
15,COCCNS(=O)(=O)c1c(C)cc(C)cc1C,-3.44%
16,O=C(NC1CCCCCC1)c1ccc(C(=O)NC2CCCCCC2)cc1,0.273%
17,CCCc1noc2c1C(=O)CC(C)(C)C2,-2.63%
18,Cc1sc(NC(=O)c2ccc(F)cc2)c(CN2CCCCC2)c1C,2.64%
19,Cc1ccc(-n2nc3c(=O)n(CCCC(=O)NCc4ccc(OC(C)C)cc4)nc(C)c3c2C)cc1,-1.03%
20,N#C/C(=C\c1ccc([N+](=O)[O-])cc1)c1nc(-c2ccc(F)cc2)cs1,0.912%
21,CN(Cc1ccccc1)Cc1csc2c1CCCC2,1.22%
22,CCOC(=O)Nc1ccc(C)cn1,4.35%
23,O=C(NCc1ccco1)C1CCCN(c2nnc(-n3cccc3)s2)C1 (stereo not shown),-5.77%

row,SMILES,% Inhibition @ 10 uM
1,O=C(NC1CCCC1)c1cnn2c1NC(c1ccc(Br)cc1)CC2C(F)(F)F (stereo not shown),-0.171%
2,COCCCNC(=O)C1CCN(C(=O)c2c(C)nn(-c3ccccc3)c2-n2cccc2)CC1,3.4%
3,O=C(O)C1CC=CCC1C(=O)Nc1cccc(Cl)c1Cl (stereo not shown),3.92%
4,c1ccc(-c2nc3ccncc3[nH]2)cc1,-0.902%
5,COc1ccc(CC(=O)NCCc2c(C)[nH]c3ccccc23)cc1,4.11%
6,CC(C)(C)NCCC(=O)C1=CCCCC1,-0.197%
7,COc1ccc(CN2CCN(Cc3ccccc3F)CC2)c(OC)c1,-3.37%
8,COc1ccc(NC(=O)c2cccc(S(=O)(=O)Nc3cccc([N+](=O)[O-])c3)c2)cc1,13.2%
9,O=C(/C=C/c1ccccc1)N1CCN(Cc2ccc3c(c2)OCO3)CC1,2.41%
10,O=C(NCCCN1CCOCC1)c1ccc(CS(=O)c2ccccc2Cl)o1 (stereo not shown),-0.434%
11,C=C(C)CN(CC)Cc1ccc(O)cc1,1.62%
12,COc1ccc(C2CC(=O)C(=Cc3c[nH]c4ccccc34)C(=O)C2)cc1 (stereo not shown),0.685%
13,O=C(c1ccc2snnc2c1)N1CCN(c2ccccn2)CC1,-3.52%
14,Cc1cccc(C(=O)Nc2ccc(CC#N)cc2)c1,5.15%
15,O=C(NCCC1=CCCCC1)c1cc(-c2ccncc2)nc2ccccc12,-0.519%
16,CC1CCc2c(sc(NC(=O)c3ccccc3Cl)c2C(N)=O)C1 (stereo not shown),-10%
17,Cc1ccc2c(CC(=O)Nc3sc4c(c3C(=O)NCc3cccnc3)CCC4)coc2c1C,8.59%
18,Cc1ccccc1OCCSc1nc(N(C)C)nc(N(C)C)n1,-5.45%
19,CC(=O)c1c(C)nc2c(c1-c1ccc(C)cc1)C(=O)c1ccccc1-2,0.795%
20,CCOc1ccccc1C(=O)Nc1cc(C)ccc1C,-9.68%
21,CCc1ccc(NC(=O)C(C(C)C)N2C(=O)c3ccccc3C2=O)cc1 (stereo not shown),1.88%
22,Cc1cccc(Nc2nc(-c3sc(N)nc3C)cs2)c1,2.7%
23,CC(=O)NCCOc1cccc2cccnc12,-6.84%

row,SMILES,% Inhibition @ 10 uM
1,Cc1ccc(-n2ncc3c(N(CCO)Cc4ccccc4)ncnc32)cc1Cl,0.0904%
2,O=C(Nc1nc2c(Cl)cccc2s1)C1CCCC1,4.64%
3,Cc1nn(C(C)C(=O)N2CCCCC2)c(=O)c2c1sc1ccccc12 (stereo not shown),-1.6%
4,CCCCCCSC1=C(C#N)C(c2ccc(F)cc2)CC(=O)N1 (stereo not shown),0.121%
5,CC(=O)N1N=C2CC(C)(C)OCC2C1c1ccccc1 (stereo not shown),-4.12%
6,CCOc1cc(-c2cc(C)nc(N)c2C#N)ccc1O,-6.74%
7,O=C(Nc1nnc(C2CCCCC2)s1)c1ccccc1Br,1.13%
8,Cc1ccc(Cn2c(C(=O)O)c(CNCCc3ccc(Cl)cc3)c3ccc(C)cc32)cc1,8.58%
9,COc1ccc(C2=NOC(C(=O)NCCc3ccccc3)C2)cc1 (stereo not shown),-5.25%
10,COc1cccc(CNC(=O)C2CCCN(S(=O)(=O)c3c(C)nc(O)nc3O)C2)c1 (stereo not shown),1.16%
11,COc1ccccc1/C=C1/SC(Nc2cccc(C)c2)=NC1=O,9.82%
12,Cc1nn(C)c2c1c(-c1ccccc1)cc(=O)n2Cc1cccc(C(F)(F)F)c1,-2.41%
13,COC(=O)c1c(N)sc2c1CCCCC2,6.49%
14,CC1CCCCN1CCNC(=O)Cn1ncc2c(=O)oc3ccccc3c21 (stereo not shown),2.85%
15,CC(C)C[C@H](NC(=O)c1ccc(N2CCN(C)CC2)cc1)C(=O)NCCN(CC(C)C)CC(C)C,-9.15%
16,NC(=O)c1nn2c(C(F)(F)F)cc(-c3ccco3)nc2c1Cl,-1.2%
17,CCOC(=O)N1CCN(C(=O)c2cc(OC)cc(OC)c2)CC1,-6.44%
18,Nc1ccc(Cc2ccc(N)c(C(=O)O)c2)cc1C(=O)O,17.4%
19,Cc1cc2n(n1)c1cc(C)nn1c1cc(C)nn21,-0.744%
20,CC(C)N(Cc1nc(-c2ccccc2)no1)C(=O)C12CC3CC(CC(C3)C1)C2,-0.352%
21,Cc1nn(C)c2nc(C(=O)NCc3ccc(F)cc3)cc(C3CC3)c12,-0.92%
